Measurements from US6001810A, “Methods for treating retroviral infection” (Eli Lilly and Company, priority 1990, dated 1999).
Converted amounts (≈) assume the structure as drawn. “And” between values parts separate entries of the source, which are not always exact repeats. Equal values may be shown once. Not every detail of the peptide structures is certain; ends, links or a residue may be inferred. Non-standard residues stand in square brackets, D forms with d. Residues, ends and D or L forms follow the SMILES beside them. Phe(4-NH2) = Nc1ccc(C[C@H](N)C(=O)O)cc1; 1Nal = N[C@@H](Cc1cccc2ccccc12)C(=O)O; Sta = CC(C)C[C@H](N)[C@@H](O)CC(=O)O

Assays:
[1] = tested on: HTLV-IIIB strain of HIV-1; assay: Inhibition of HIV-1 cytopathic effect in CEM cells (XTT); type: cell-based; conditions: for IC25 (concentration that reduced CPE by 25%): Table V first column; for ID50 (minimum drug concentration that inhibited CPE by 50%): 7 days
Procedure: (§1) Quantitative evaluation of the viral inhibition were performed on the T-cell lymphoblastoid cell lines MT-2 (Harada et al., 1985, Science 229:563-566) and CEM (Nara and Fischinger, 1988, Nature 332:469-470). The cells were infected with the HTLV-IIIB strain of HIV-1 from the supernatant fluid of infected human T-lymphocyte cell line H9 (Popovic, M. et al., 1984, Science 224:497-500). Each of these three cell lines are publicly available from the National Institutes of Health (NIH) AIDS Research and Reference Reagent Program. The H9/HTLC-IIIB cell line is available under catalogue number 231, while CEM cell line is available under catalogue number 117 and the MT-2 cell line is available under the catalogue number 237. MT-2 and CEM cells were grown in RPMI 1640 medium supplemented with 10% (v/v) fetal calf serum, 100 U/ml penicillin, 100 μg/ml streptomycin and 25 mM HEPEs buffer. H9 cells were grown in the same medium except 20% fetal calf serum was used. The peptides were diluted in the medium used for MT-2 and CEM cells. Cell cultures were maintained in disposable tissue culture labware at 37° C. in a humidified atmosphere of 5% CO2 in air.
The inhibitors were dissolved in DMSO at 40 mg/ml or sterile water at 2 mg/ml, then dilutions were made in medium. The dilutions were added to micro-titer plates in 100 μl/well aliquots so that the high drug concentration for each screen was 100 μg/ml after the addition of cells to the well.
Susceptible MT-2 and CEM cells were grown and the cell population determined by a trypan blue viable cell count. The desired total number of cells were placed in a sterile, disposable 50 ml conical centrifuge tube and virus was added to give an MOI (Multiplicity of Infection) of 0.03 TCID50 /cell (Tissue Culture Infectious Dose) on MT-2 cells and approximately 0.12 TCID50 /cell on CEM cells. Fresh medium was added to adjust the cell density to 1×10^5 cells/ml, then the virus-cell suspension was incubated at 37° C. for 1 to 2 hours until plating. Uninfected controls cell were prepared in the same manner but without the addition of virus. Infected and uninfected cells were added to plates in 100 μl/well aliquots to give a starting cell number of 1×10^4 cells/well. The plates were incubated for seven days in a humidified atmosphere of 5% CO2 in air.
Reagents for colorimetric evaluation of cell viability were prepared by mixing the tetrazolium reagent, XTT, and phenazine methosulfate (PMS) to final concentrations of 200 μg/ml and 0.02 mM, respectively. Fifty microliters of the XTT-PMS solution was added to each well of the microtiter plates, then the plates were incubated in the CO2 incubator for another four hours. The lids were removed from the plates and replaced with adhesive plate sealers. The plates were read with the sealers in place in a Vmax Plate Reader® at 450 nm and 650 nm. The cytopathic effect (CPE) and percentage of cell viability were then calculated.
The activity and cytotoxicity of several other peptides were also assayed in CEM cells using the same procedure as described above. These assays also included toxicity and activity levels of both 25% and 50%.

MLV = MLV XC Plaque Reduction Assay - Virus Yield; type: cell-based, Murine Leukemia Virus
Procedure: (§2) About 3 to 5×10^3 SC-1 cells (available from the American Type Culture Collection, Rockville, Md. under the accession number ATCC CRL-1404) per well of a 96-well microtiter plate were seeded in minimal essential medium supplemented with 5% fetal bovine serum, penicillin (150 U/ml), Streptomycin (150 μg/ml) and polybrene (2 μg/ml), then infected with Mo-MuLV (Multiplicity of Infection=10 PFU/cell) the next day. The virus was allowed to adsorb to the cells for 1 hour, then medium containing serial dilutions of P-7, P-9 or medium alone was added to the cells. Pepstatin A ([…]-Val-Val-Statine-Ala-Statine) and AZT (3'-Azido-3'-deoxythymidine) were also added as controls. After incubation for 5 days (when cells were confluent) the SC-1 cells were UV irradiated for 10 seconds and 5 to 8×10^4 XC cells (ATCC CCL-165) per well were added. Generally, about two additional days of incubation were required to obtain full virus-induced cytopathic effect.
The assay described above was also preferred to determine the virus yield. In this experiment, the supernatents were removed from the SC-1 cells four days after infection and tested for MLV titers, using the XC-plaque assay as previously described.

Mo-MuLV = assay: Moloney Murine Leukemia Virus Assay, CPE inhibition in SC-1/XC cells; type: cell-based; design: key: 4+(>90%); 3+(>60%); 2+(>40%); 1+(>20%); -(Negative)
Procedure: as §2

[2] = tested on: HTLV-IIIB strain of HIV-1; assay: Inhibition of HIV-1 cytopathic effect in MT-2 cells (XTT); type: cell-based; conditions: 7 days
Procedure: as §1, with “H9 cells were grown in the same medium except 20% fetal calf serum was used. The peptides were diluted in the medium used for MT-2 and CEM cells. Cell cultures were maintained in disposable tissue culture labware at 37° C. in a humidified atmosphere of 5% CO2 in air.” left out
Susceptible MT-2 and CEM cells were grown and the cell population determined by a trypan blue viable cell count. […]
Reagents for colorimetric evaluation of cell viability were prepared by mixing the tetrazolium reagent, XTT, and phenazine methosulfate (PMS) to final concentrations of 200 μg/ml and 0.02 mM, respectively. […] The plates were read with the sealers in place in a Vmax Plate Reader® at 450 nm and 650 nm. The cytopathic effect (CPE) and percentage of cell viability were then calculated.

[3] = tested on: complex of Friend's Spleen-Forcus Virus (Fr. SFFV) and Friend's Murine Leukemia Virus (F. MLV); assay: In vivo inhibition of Friend Virus Complex in DBA/2 mice; design: Spleen / Inhibition % (spleen): dose or concentration left out as unconfirmed; conditions: individual infected DBA/2 mice; for Inhibiton % (virus titer) / Virus Titer (Fr.MLV in the spleens, XC plaque assay): 100 pg IP twice daily for 20 days; for Virus Titer (Fr.MLV in the spleens, XC plaque assay): supernatents of 10% homogenates; for Spleen: IP one hour before infection, then twice daily for 20 days; for Inhibition % (spleen): IP twice daily for 20 days
Procedure: Formulations of peptides P-9 and P-7 were prepared for injection into DBA/2 mice. The formulations were prepared by dissolving the purified peptides in Emulphor™ EL620 which was purchased from the GAF Chemical Corporation, 1361 Alps Row, Wayne, N.J., 07470. The drugs were injected intraperitoneally one hour before the mice were infected with a complex of Friend's Spleen-Forcus Virus (Fr. SFFV) and Friend's Murine Leukemia Virus (F. MLV). These viruses ordinarily cause polycythermia (elevated levels of red blood cells) and splenomegaly (enlargement of spleen) within two to three week post-infection. The mice were injected twice daily with the inhibitor formulation for twenty days after the infection.
*Drugs were dissolved in Emulphor ™, injected IP one hour before
infection, then twice daily for 20 days.
^a Titers of Fr.MLV in the spleens (supernatents of 10% homogenates)
were determined by XC plaque assay.

[4] = 50 μg/ml, supernatants four days after infection

`CC(=O)N[C@@H](Cc1ccc(O)cc1)C(=O)N1CCC[C@H]1C(=O)N[C@@H](Cc1ccccc1)C(=O)N[C@H](C(=O)N[C@@H](CC(C)C)[C@@H](O)CC(=O)N[C@@H](CC(C)C)C(=O)N[C@@H](Cc1ccccc1)C(N)=O)C(C)C` [P-5, Ac Tyr Pro Phe Val Statine Leu Phe NH2] (Ac-YPFV[Sta]LF-NH2) was tested, and the “IC25 (concentration that reduced CPE by 25%)” value [1] was 1.33 µg/mL (≈ 1.35 µM).

In the case of `CC(=O)N[C@@H](Cc1cccc2ccccc12)C(=O)N1CCC[C@H]1C(=O)N[C@@H](Cc1ccccc1)C(=O)N[C@H](C(=O)N[C@@H](CC(C)C)[C@@H](O)CC(=O)N[C@@H](CC(C)C)C(=O)N[C@@H](Cc1ccccc1)C(N)=O)C(C)C` [P-7, Ac NA Pro Phe Val Statine Leu Phe NH2] (Ac-[1Nal]PFV[Sta]LF-NH2), the “% Inhibition (virus yield)” value (MLV; 6.25 μg/ml) is reported as 79%, the Yield (MLV; 6.25 μg/ml) is reported as 3.9 × 10^4 PFU/ML and the “% Inhibition (virus yield)” value (MLV; 12.5 μg/ml) is reported as 83%. The Yield (MLV; 12.5 μg/ml) was 3.2 × 10^4 PFU/ML, the “% Inhibition (virus yield)” value (MLV; 25 μg/ml) was 89% and the Yield (MLV; 25 μg/ml) was 2.1 × 10^4 PFU/ML. The “% Inhibition (virus yield)” value (MLV; 50 μg/ml) was 96%, the Yield (MLV; [4]) was 8.0 × 10^3 PFU/ML and the CPE inhibition score (Mo-MuLV; 1.56 μg/ml) was “-”. The CPE inhibition score (Mo-MuLV; 3.12 μg/ml) was “-”, the CPE inhibition score (Mo-MuLV; 6.25 μg/ml) was “-” and the CPE inhibition score (Mo-MuLV; 12.5 μg/ml) was 1+ (1+(>20%)). The CPE inhibition score (Mo-MuLV; 25 μg/ml) was 2+ (2+(>40%)), the CPE inhibition score (Mo-MuLV; 50 μg/ml) was 3+ (3+(>60%)) and the “ID50 (minimum drug concentration that inhibited CPE by 50%)” value [2] was 0.64 µg/mL (≈ 0.629 µM). For the same compound, the “Inhibiton % (virus titer)” value [3] was 18% and 15% and 62% and 95%, the “Virus Titer (Fr.MLV in the spleens, XC plaque assay)” value [3] was 320,000 PFU/ml and 330,000 PFU/ml and 150,000 PFU/ml and 20,000 PFU/ml and the Spleen [3] was 1.11 gm and 0.43 gm and 0.49 gm and 0.25 gm. The “Inhibition % (spleen)” value [3] was 0% and 61% and 56% and 79%, the “ID50 (minimum drug concentration that inhibited CPE by 50%)” value [1] was 0.37 µg/mL (≈ 0.364 µM) and the “IC25 (concentration that reduced CPE by 25%)” value [1] was 0.20 µg/mL (≈ 0.197 µM).

For `CC(=O)N[C@@H](Cc1c[nH]c2ccccc12)C(=O)N1CCC[C@H]1C(=O)N[C@@H](Cc1ccccc1)C(=O)N[C@H](C(=O)N[C@@H](CC(C)C)[C@@H](O)CC(=O)N[C@@H](CC(C)C)C(=O)N[C@@H](Cc1ccccc1)C(N)=O)C(C)C` [P-8, Ac Trp Pro Phe Val Statine Leu Phe NH2] (Ac-WPFV[Sta]LF-NH2), the “IC25 (concentration that reduced CPE by 25%)” value [1] was 0.82 µg/mL (≈ 0.815 µM).

For `COc1ccc(C[C@H](NC(C)=O)C(=O)N2CCC[C@H]2C(=O)N[C@@H](Cc2ccccc2)C(=O)N[C@H](C(=O)N[C@@H](CC(C)C)[C@@H](O)CC(=O)N[C@@H](CC(C)C)C(=O)N[C@@H](Cc2ccccc2)C(N)=O)C(C)C)cc1` [P-9, Ac YOM Pro Phe Val Statine Leu Phe NH2] (Ac-Y(Me)PFV[Sta]LF-NH2), the “% Inhibition (virus yield)” value (MLV; 6.25 μg/ml) was 54%, the Yield (MLV; 6.25 μg/ml) was 9.0 × 10^4 PFU/ML and the “% Inhibition (virus yield)” value (MLV; 12.5 μg/ml) was 71%. For the same compound, the Yield (MLV; 12.5 μg/ml) was 5.5 × 10^4 PFU/ML, the “% Inhibition (virus yield)” value (MLV; 25 μg/ml) was 94% and the Yield (MLV; 25 μg/ml) was 1.2 × 10^4 PFU/ML. For the same compound, the “% Inhibition (virus yield)” value (MLV; 50 μg/ml) was 98%, the Yield (MLV; [4]) was 3.0 × 10^3 PFU/ML and the CPE inhibition score (Mo-MuLV; 1.56 μg/ml) was “-”. For the same compound, the CPE inhibition score (Mo-MuLV; 3.12 μg/ml) was “-”, the CPE inhibition score (Mo-MuLV; 6.25 μg/ml) was “-” and the CPE inhibition score (Mo-MuLV; 12.5 μg/ml) was “-”. The CPE inhibition score (Mo-MuLV; 25 μg/ml) was 2+ (2+(>40%)), the CPE inhibition score (Mo-MuLV; 50 μg/ml) was 3+ (3+(>60%)) and the “ID50 (minimum drug concentration that inhibited CPE by 50%)” value [2] was 0.58 µg/mL and 0.69 µg/mL. The “Inhibiton % (virus titer)” value [3] was 28% and 15% and 49% and 95%, the “Virus Titer (Fr.MLV in the spleens, XC plaque assay)” value [3] was 280,000 PFU/ml and 330,000 PFU/ml and 200,000 PFU/ml and 20,000 PFU/ml and the Spleen [3] was 1.29 gm and 1.39 gm and 0.23 gm and 0.15 gm. The “Inhibition % (spleen)” value [3] was 0% and 80% and 86%, the “ID50 (minimum drug concentration that inhibited CPE by 50%)” value [1] was < 0.32 µg/mL and 0.54 µg/mL and the “IC25 (concentration that reduced CPE by 25%)” value [1] was 1.78 µg/mL (≈ 1.78 µM).

For `CC(=O)N[C@@H](Cc1ccccc1)C(=O)N1CCC[C@H]1C(=O)N[C@@H](Cc1ccccc1)C(=O)N[C@H](C(=O)N[C@@H](CC(C)C)[C@@H](O)CC(=O)N[C@@H](CC(C)C)C(=O)N[C@@H](Cc1ccccc1)C(N)=O)C(C)C` [P-10, Ac Phe Pro Phe Val Statine Leu Phe NH2] (Ac-FPFV[Sta]LF-NH2), the “IC25 (concentration that reduced CPE by 25%)” value [1] was 0.51 µg/mL (≈ 0.527 µM).

`CC(C)C[C@H](NC(=O)C[C@H](O)[C@H](CC(C)C)NC(=O)[C@@H](NC(=O)[C@H](Cc1ccccc1)NC(=O)[C@@H]1CCCN1C(=O)[C@@H](N)Cc1c[nH]cn1)C(C)C)C(=O)N[C@@H](Cc1ccccc1)C(=O)N[C@@H](Cc1ccc(N)cc1)C(N)=O` [P-15, H-His Pro Phe Val Statine Leu Phe paF NH2] (H-HPFV[Sta]LF[Phe(4-NH2)]-NH2) was tested, and the “ID50 (minimum drug concentration that inhibited CPE by 50%)” value [1] was 78.9 µg/mL (≈ 73.2 µM).
